In the BET-seq Pho4 binding data (Le et al. 2018):
This is one part of the list. Values were computed here from the reads of four pooled replicates and scatter widely.

biological target: T1, Pho4 (S. cerevisiae) (UniProt P07270); assay: relative binding free energy (BET-seq); higher = weaker binding; conditions: reference: library average
T1 sequence: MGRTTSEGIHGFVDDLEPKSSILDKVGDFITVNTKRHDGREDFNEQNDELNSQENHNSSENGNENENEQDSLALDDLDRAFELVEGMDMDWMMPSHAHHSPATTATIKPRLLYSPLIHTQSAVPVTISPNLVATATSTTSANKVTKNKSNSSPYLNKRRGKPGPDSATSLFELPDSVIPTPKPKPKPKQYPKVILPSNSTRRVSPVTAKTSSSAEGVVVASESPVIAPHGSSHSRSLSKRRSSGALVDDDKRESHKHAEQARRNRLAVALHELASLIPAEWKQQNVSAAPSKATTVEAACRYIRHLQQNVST

| Sequence | relative binding free energy |
| --- | --- |
| TATAGCACGTGTTTTC | -0.1 kcal/mol |
| ATTCACACGTGGATTT | 0.34 kcal/mol |
| GATTACACGTGGGAGA | 0.12 kcal/mol |
| GGGCGCACGTGCGTGT | -0.22 kcal/mol |
| AATGTCACGTGTAGGA | 0.02 kcal/mol |
| TGGGACACGTGGAAGC | 0.03 kcal/mol |
| TAGTACACGTGAGATT | 0.33 kcal/mol |
| AGGTCCACGTGATATG | 0.06 kcal/mol |
| GGTGGCACGTGTAGGA | 0.05 kcal/mol |
| AGAGACACGTGTTTAG | 0.05 kcal/mol |
| TGAAGCACGTGGGCAT | -0.18 kcal/mol |
| GGATGCACGTGTAGTT | -0.03 kcal/mol |
| GTGAGCACGTGCAAGG | -0.09 kcal/mol |
| TTGTCCACGTGTTGTT | -0.05 kcal/mol |
| GTTAGCACGTGGTTAA | -0.08 kcal/mol |
| CCGTGCACGTGATGGG | -0.01 kcal/mol |
| ATTGGCACGTGGTTGA | -0.13 kcal/mol |
| CTCGTCACGTGGTTGT | 0.11 kcal/mol |
| TGGTGCACGTGGACAT | -0.03 kcal/mol |
| GGTTGCACGTGGTATT | -0.07 kcal/mol |
| GAAAGCACGTGTGGGC | 0.02 kcal/mol |
| GTTAGCACGTGGCATG | -0.05 kcal/mol |
| TGCTTCACGTGAGTCG | 0.4 kcal/mol |
| TTATTCACGTGTGAAC | 0.35 kcal/mol |
| ATAGGCACGTGTATTT | 0.01 kcal/mol |

| Sequence | relative binding free energy |
| --- | --- |
| GGTTTCACGTGATAGG | 0.44 kcal/mol |
| CCGTTCACGTGGGTGG | 0.18 kcal/mol |
| GTGTCCACGTGTTGCG | 0.05 kcal/mol |
| CATGCCACGTGGGGGT | -0.32 kcal/mol |
| TTCTACACGTGTGGGT | 0.11 kcal/mol |
| GTGGCCACGTGGGCAG | -0.12 kcal/mol |
| AGTTTCACGTGTGCAG | 0.3 kcal/mol |
| TATTTCACGTGGTGAG | 0.27 kcal/mol |
| AAGTTCACGTGGTTTC | 0.4 kcal/mol |
| GTTGCCACGTGATTTT | 0.19 kcal/mol |
| GGGGGCACGTGGGGAG | -0.1 kcal/mol |
| ACAGGCACGTGGTTTG | -0.31 kcal/mol |
| TGGCGCACGTGTGTGT | -0.07 kcal/mol |
| TCGGCCACGTGGGTTA | -0.21 kcal/mol |
| TAAGGCACGTGCGGAA | -0.1 kcal/mol |
| TGTTTCACGTGTCTTT | 0.23 kcal/mol |
| GGCGACACGTGGTTAT | 0.07 kcal/mol |
| TATTGCACGTGTGATT | 0.1 kcal/mol |
| GGATGCACGTGCATGT | -0.06 kcal/mol |
| TGGCCCACGTGATGGG | 0.09 kcal/mol |
| TTCTTCACGTGGGATA | 0.08 kcal/mol |
| TACAGCACGTGATTTT | 0.18 kcal/mol |
| AATTGCACGTGAGGGA | 0.16 kcal/mol |
| AGGGTCACGTGGGGAC | 0.03 kcal/mol |
| AAGCGCACGTGTGCGG | -0.01 kcal/mol |

| Sequence | relative binding free energy |
| --- | --- |
| GGGTCCACGTGGTTTG | 0.13 kcal/mol |
| CTAGTCACGTGGCGTG | -0.02 kcal/mol |
| TGCGGCACGTGAGAGT | 0.03 kcal/mol |
| TGATACACGTGTTTAG | 0 kcal/mol |
| GGTCACACGTGGGTGA | -0.24 kcal/mol |
| TGTTACACGTGTACGT | 0.15 kcal/mol |
| GGATACACGTGTGATT | 0.16 kcal/mol |
| ATAGACACGTGTATAG | -0.02 kcal/mol |
| GATATCACGTGTTAAG | 0.28 kcal/mol |
| TGCAACACGTGTTGGG | 0.02 kcal/mol |
| TGTAACACGTGCGTTT | -0.01 kcal/mol |
| TGAGCCACGTGGAGTT | -0.05 kcal/mol |
| TAGTGCACGTGAGTCA | 0.1 kcal/mol |
| GTCCACACGTGGGAGG | 0.1 kcal/mol |
| CTGTACACGTGATTGG | 0.15 kcal/mol |
| TGGGGCACGTGAATAA | 0.17 kcal/mol |
| TTGTGCACGTGAGTAT | 0.06 kcal/mol |
| AGGACCACGTGTGGTA | -0.04 kcal/mol |
| TCTGTCACGTGGGTGC | 0.02 kcal/mol |
| TGAGTCACGTGGGGGA | -0.02 kcal/mol |
| ATTTACACGTGCGTAG | -0.06 kcal/mol |
| GTATTCACGTGTTGAC | 0.43 kcal/mol |
| AAGATCACGTGATAGG | 0.11 kcal/mol |
